Data taken from publication PMC4336329 (PLoS ONE, 2015).
About 14,000 (4.5%) of roughly 310,000 compounds showed an effect of 50% or more. Effects have a minus sign here. The list shows a part of the results.

Biological target: human ether-à-go-go-related gene (hERG) potassium channel (human, UniProt Q12809)
Experiment: primary screen, population patch clamp on CHO cells stably expressing hERG
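Note: peak tail current of the secondary pulse compared with the same well before compound.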

human ether-à-go-go-related gene (hERG) potassium channel, sequence (Q12809 whole entry, looked up): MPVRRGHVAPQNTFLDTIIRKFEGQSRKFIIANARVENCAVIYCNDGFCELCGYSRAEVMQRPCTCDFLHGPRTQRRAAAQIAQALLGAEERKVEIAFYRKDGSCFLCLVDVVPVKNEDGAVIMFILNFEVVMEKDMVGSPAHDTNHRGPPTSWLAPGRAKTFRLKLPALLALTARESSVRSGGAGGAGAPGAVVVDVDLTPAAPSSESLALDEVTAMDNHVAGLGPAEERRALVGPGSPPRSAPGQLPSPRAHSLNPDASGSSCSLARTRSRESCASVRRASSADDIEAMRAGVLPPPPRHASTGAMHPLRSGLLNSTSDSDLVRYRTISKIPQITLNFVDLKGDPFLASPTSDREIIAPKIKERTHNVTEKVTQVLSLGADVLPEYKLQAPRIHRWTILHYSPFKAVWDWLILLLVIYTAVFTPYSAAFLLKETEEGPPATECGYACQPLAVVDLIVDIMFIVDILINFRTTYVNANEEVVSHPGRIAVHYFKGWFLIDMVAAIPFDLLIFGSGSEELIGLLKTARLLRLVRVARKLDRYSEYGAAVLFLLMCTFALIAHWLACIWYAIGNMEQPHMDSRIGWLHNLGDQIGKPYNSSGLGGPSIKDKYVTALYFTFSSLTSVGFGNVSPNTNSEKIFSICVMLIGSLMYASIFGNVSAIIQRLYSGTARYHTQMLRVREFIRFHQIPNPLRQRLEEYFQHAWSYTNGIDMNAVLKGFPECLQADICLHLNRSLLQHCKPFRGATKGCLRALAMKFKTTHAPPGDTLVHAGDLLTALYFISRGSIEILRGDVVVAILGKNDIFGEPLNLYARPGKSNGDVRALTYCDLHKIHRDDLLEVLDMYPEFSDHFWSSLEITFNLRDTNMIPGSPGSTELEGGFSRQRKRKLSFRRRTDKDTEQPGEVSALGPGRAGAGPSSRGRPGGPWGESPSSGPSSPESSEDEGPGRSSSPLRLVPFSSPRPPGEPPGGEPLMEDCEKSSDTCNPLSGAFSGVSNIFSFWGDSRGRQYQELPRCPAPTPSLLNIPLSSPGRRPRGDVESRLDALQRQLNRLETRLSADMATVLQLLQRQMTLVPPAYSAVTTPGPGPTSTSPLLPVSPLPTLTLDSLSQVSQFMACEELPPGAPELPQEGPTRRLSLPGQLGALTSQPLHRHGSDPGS

Row | SMILES | hERG current change (%, negative = inhibition) at 10uM
1 | CCS(=O)(=O)c1ccc(N)cc1.Cl | 16%
2 | CSc1ncc(Sc2ccccc2)c(C(=O)O)n1 | 8.34%
3 | Cc1cc(Cl)ccc1OCC(=O)n1cc(C(=O)c2cc(Cl)ccc2O)cn1 | 5.34%
4 | Cc1ccccc1NC(=O)c1c(F)c(F)c(F)c(F)c1F | 7.17%
5 | CC(C)CCNC(=O)C(c1cccnc1)N(CCc1ccccc1)C(=O)Cn1nnc2ccccc21 (stereo not drawn) | -1.9%
6 | O=C(N/N=C\c1ccc(Cl)s1)c1ccc(Cn2cccn2)o1 | -57.2%
7 | CC(C)NS(=O)(=O)c1ccc(CCC(=O)Nc2ccc3c(c2)OCO3)cc1 | 1.66%
8 | COc1cc(C(=O)Nc2ccc(NC(=O)c3ccco3)nc2)cc(OC)c1OC | 11.3%
9 | Cc1cc(NC(=O)C2CCCO2)ccc1Br (stereo not drawn) | 9.44%
10 | c1ccc2c(-c3cc(C4CCNCC4)[nH]n3)cccc2c1 | -16.2%
11 | Cc1cccc(C(=O)N[C@@H](C)C(=O)N2CCN(c3ncccn3)CC2)c1 | -3.21%
12 | O=C(CCl)c1ccc2c(c1)CCN2C(=O)C1CCCCC1 | 10.7%
13 | O=C(Cc1cccc2ccccc12)N/N=C/c1ccc2cccc(O)c2n1 | 5.86%
14 | CCCCC/S(CC1CC1(Cl)Cl)=N\S(=O)(=O)c1ccc(C)cc1 (stereo not drawn) | 15.8%
15 | O=C(NCc1cccs1)C1CCCN(c2ncccn2)C1 (stereo not drawn) | -3.75%
16 | Cc1ccc(CN(C(=O)c2cccs2)C2CCS(=O)(=O)C2)cc1 (stereo not drawn) | -46.5%
17 | CCN(CC)c1ccc2cc(-c3nc4ccccc4n3C)c(=O)oc2c1 | 22.9%
18 | Cc1cc(S(=O)(=O)N2CCOCC2)ccc1NC(=O)c1ccc(F)cc1 | 1.32%
19 | CCOC(=O)N1CCN(C(=O)CSc2nnc(-c3ccc(C)c(C)c3)o2)CC1 | -8.27%

Row | SMILES | hERG current change (%, negative = inhibition) at 10uM
20 | O=C(Nc1nc(-c2nc3ccccc3s2)cs1)c1ccco1 | 8.82%
21 | S=c1[nH]nc(-c2ccco2)n1/N=C/c1cccc(Cl)c1 | 17.6%
22 | CC1CC(=S)Nc2ccccc2N1C(=O)Nc1ccccc1 (stereo not drawn) | 4.1%
23 | CCOC(=O)C(C)Sc1cc(CS(=O)(=O)c2ccccc2)nc(-c2ccccc2)n1 (stereo not drawn) | 15.9%
24 | COc1cc(C(=O)Nc2cc(-c3nc4cc(C)ccc4o3)ccc2C)cc(OC)c1OC | 15%
25 | C[C@H](NC(=O)C1CCN(C(=O)[C@H](Cc2ccccc2)NC(=O)OC(C)(C)C)CC1)C(=O)O | 4.15%
26 | Nc1nc2n(n1)C(c1ccccc1)CC(c1ccc(F)cc1)N2 (stereo not drawn) | -10.1%
27 | CC(C)C(=O)N1CCC2(CC1)Oc1ccc(F)cc1C(=O)C21CC(c2ccccc2)=NO1 (stereo not drawn) | -27.2%
28 | O=C(NCCCn1ccnc1)c1cc2ccccc2o1 | -18.2%
29 | O=C(CCCOc1ccccc1)N1CCCc2ccccc21 | -9.15%
30 | COCCNC(=O)c1cccc(C)c1[N+](=O)[O-] | -2.91%
31 | O=C(NC1CC1)C1=C[C@H](c2ccc3c(c2)OCO3)C[C@H](OCc2ccc(CO)cc2)O1 | -4.26%
32 | CC1CC(OCC(O)CN2CCN(Cc3ccccc3)CC2)CC(C)(C)C1.Cl (stereo not drawn) | -43.5%
33 | COc1cccc(C(=O)C2=NN(C(C)=O)CC2c2ccco2)c1 (stereo not drawn) | -15.8%
34 | Cc1nn(-c2ccccc2)c(N2CCCC2)c1/C=N/n1cnc2scc(-c3ccccc3)c2c1=O | -3.64%
35 | CNC(=S)N(CCc1c(C)[nH]c2ccc(OC)cc12)Cc1cccnc1 | 9.25%
36 | O=C(CSCc1ccccc1)N1CCN(S(=O)(=O)c2ccc(F)cc2)CC1 | 11.3%
37 | Cc1cc(NC2CCCCC2)nc2ccccc12 | -17.5%
38 | CCCCOc1cccc(NC(=O)CSc2nccn2C)c1 | -17.3%

Row | SMILES | hERG current change (%, negative = inhibition) at 10uM
39 | Cc1ccc(N2CCN(S(=O)(=O)c3nnc(NC(=O)c4ccco4)s3)CC2)cc1 | 15.6%
40 | Cc1ccc(NC2CCCN(C(=O)c3ccc(C)c(N4CCNC4=O)c3)C2)cc1C (stereo not drawn) | 2.47%
41 | CC1SCC(NC(=O)c2ccccc2Cl)CS1 (stereo not drawn) | 0.762%
42 | CN1C(=O)C(=Cc2ccccc2OCc2ccc(C(=O)O)cc2)C(=O)N(C)C1=O | 16.8%
43 | CC(C)C[C@H](NC(=O)c1nc[nH]c1C(=O)NCC(=O)OC(C)(C)C)C(=O)OCc1ccccc1 | 15.3%
44 | Cc1ncc(CO)c(/C=N/NC(=S)Nc2ccc(C(C)C)cc2)c1O | 10.6%
45 | CCCN1CCC(=O)N([C@H](CN=[N+]=[N-])CC(C)C)CC1 | 3.11%
46 | CCOC(=O)CNC(=O)/C=C/c1c(Cl)cccc1Cl | -1.61%
47 | c1cnc(-c2noc(CN3CCN(C4CCCC4)CC3)n2)cn1 | 18.7%
48 | Cc1ccc(C(=O)N/C(=C\Cl)P(=O)(c2ccccc2)c2ccccc2)cc1 | 10.8%
49 | COc1ccc(NC(=O)c2ccco2)cc1NC(=O)c1c(F)c(F)c(OC)c(F)c1F | -2.08%
50 | Cc1ccc(N=C2C(=O)Nc3ccc(Br)cc32)cc1 | 15.5%
51 | Cc1ccn2c(NC3CCCCC3)c(C(C)C)nc2c1 | -34.4%
52 | Oc1ccc2ccccc2c1C=NCc1cn2ccsc2n1 | 2.12%
53 | Oc1cncc(Cc2ccccc2)c1 | 12.3%
54 | Cc1cccc2cc(COC(=O)C3CCCCC3)c(=O)[nH]c12 | 13.5%
55 | COc1cc(C(=O)NCc2nnc(SCC(=O)Nc3nccs3)o2)cc(OC)c1OC | 7.04%
56 | CC(C)NC(=O)/C(C#N)=C/c1ccc2c(c1)OCCO2 | -4.24%
57 | O=C(OC1CCCCC1=O)c1cccc(S(=O)(=O)NCc2ccccc2)c1 (stereo not drawn) | -44.6%
